Assay results: PubChem BioAssay AID1508642 (National Center for Advancing Translational Sciences (NCATS), 2021)
In all, about 43,000 compounds went through this assay and about 200 (0.47%) were called active. Inconclusive results (about 12%) are left out. The call rests on the fitted dose curve; in most records, active means well fitted cell-killing curve with a large enough effect; inconclusive means small, poorly fitted or top-dose-only effect, or effect the other way; inactive means flat fitted curve, though single readings scatter. The list shows a part of the results.

Assay: Cell viability qHTS assay in S16 Pmp22-F2sN cells; further: nearly all actives have a fitted effect of over 65% in size
Settings: S16 Pmp22-F2sN Schwann cells (luciferase reporters placed in the Pmp22 gene) viability, CellTiter-Glo, 24 h; series mostly up to 57.5 µM; activity change, negative = cytotoxicity: at the top concentration
In short: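 S16 Schwann cells carrying the Pmp22-F2sN reporter, seeded in 1536-well format, were exposed to library compounds for 24 h at 37C. Viability was read as CellTiter-Glo luminescence after 15 min at room temperature.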
On the % scale 0 is the no-effect control and ±100 the full control effect.

| Compound | activity change, negative = cytotoxicity |
| --- | --- |
| COc1cc(C(=O)Nc2ccc(NC(=O)c3ccc(C(C)(C)C)cc3)cc2)cc(OC)c1OC | inactive: -21% |
| O=C(COCc1cc(-c2cccs2)on1)N1CCN(c2ccccc2)CC1 | inactive: -6.28% |
| CCC(C(=O)NCc1cc(OC)ccc1OC)n1nc(C)c2sc3ccccc3c2c1=O (stereo not given) | inactive: 12.4% |
| COc1cccc(C(=O)N2CCC(C(=O)Nc3cccc(Cl)c3)CC2)c1 | inactive: 0.988% |
| Cc1cccc(CNC(=O)c2ccc(N3Cc4ccccc4Oc4ncccc43)s2)c1 | inactive: -10.3% |
| CN(C)c1cccc(C(=O)N2CCC(c3c[nH]c4ccccc34)(c3c[nH]c4ccccc34)CC2)c1 | inactive: -10.5% |
| COc1ccc(OC)c(CNC(=O)C2CCCN(c3ncnc4onc(-c5ccc(F)cc5)c34)C2)c1 (stereo not given) | inactive: 2.7% |
| Fc1ccc(NCc2nnc3n2CCCCC3)cc1Cl | inactive: -1.44% |
| CC(C)c1ccc(N2C(=O)CSC23C(=O)N(Cc2cccc(F)c2)c2ccccc23)cc1 (stereo not given) | inactive: -20.1% |
| COc1cccc(C(=O)Nc2nc3nc(-c4ccccc4)cc(=O)n3[nH]2)c1 | inactive: -1.3% |
| CC(=O)c1ccc(NC(=O)CN2C(=O)CN(C)C(=O)c3ccccc32)cc1 | inactive: 19.7% |
| COc1cccc(CNC(=O)C2=C(C)C(=O)OC23CCN(C(C)=O)CC3)c1OC | inactive: -2% |
| COc1cc(Nc2nc(SCc3ccc(Cl)cc3)nc3ccccc23)cc(OC)c1 | inactive: -12.5% |
| COc1ccc(-c2oc3ncn4nc(COc5cccc(C)c5C)nc4c3c2-c2ccc(OC)cc2)cc1 | inactive: 1.67% |
| O=C1c2oc3ccccc3c(=O)c2C(c2cccc(O)c2)N1c1nncs1 (stereo not given) | inactive: 6.16% |
| CCOC(=O)c1c(-c2ccc(C)cc2)csc1NC(=O)c1cc(=O)c2cc(C)ccc2o1 | inactive: -8.26% |
| O=C(Cn1c(=O)nc(-c2ccccc2)c2ccccc21)NCCc1ccccc1 | inactive: 3.81% |
| CCc1ccccc1N(CC)C(=O)c1c(C)oc2ncn(C)c(=O)c12 | inactive: 5.6% |
| Cc1ccc(-c2nc(S(=O)(=O)c3ccccc3)c(N3CCN(c4ccccc4)CC3)o2)cc1 | inactive: 3.82% |
| Cc1ccc2nc(COc3ccccc3NC(=O)COc3ccc(F)cc3)cc(=O)n2c1 | inactive: -0.439% |
| CCc1ccccc1NS(=O)(=O)c1ccc2[nH]cc(C(=O)N(CC(C)C)CC(C)C)c(=O)c2c1 | inactive: -0.083% |
| CCc1ccc2nc(N(CCN(CC)CC)C(=O)c3cccs3)sc2c1 | inactive: -5.73% |
| COc1ccc(NC(=O)C2CCN(S(=O)(=O)c3ccc4c(c3)CCCC(=O)N4)CC2)cc1OC | inactive: -5.23% |
| O=C(Nc1ccccc1C(=O)OCc1cc(=O)n2c3c(sc2n1)CCCC3)c1ccc(F)cc1 | inactive: -16% |

| Compound | activity change, negative = cytotoxicity |
| --- | --- |
| COc1ccc(-c2nc(SCC(=O)Nc3ccc4c(c3)OCCO4)c(-c3ccc(F)cc3)[nH]2)cc1 | inactive: -25.3% |
| Cc1cccc(C(C)C)c1NC(=O)Cn1c(=O)oc2cc(S(=O)(=O)N3CCCC3)ccc21 | inactive: 0.312% |
| COC(=O)c1ccc(Cl)cc1NC(=O)NCCc1c(C)nn(C)c1C | inactive: -4.54% |
| Cc1c(C(=O)N2CCOCC2)oc2c1-c1nn(CC(=O)NCc3cccc(F)c3)cc1CC2 | inactive: 4.89% |
| CC(C)c1ccc(NC(=O)Cn2c(=O)n(CC3CCC(C(=O)NCCc4ccccc4)CC3)c(=O)c3ccccc32)cc1 (stereo not given) | inactive: 18.2% |
| Cc1ccc(-n2c(=O)c3cccnc3n2CC(=O)Nc2cc(C)cc(C)c2)cc1 | inactive: -5.43% |
| COc1ccccc1CNC(=O)Cn1c(=O)nc(-c2ccccc2F)c2cc(Cl)ccc21 | inactive: 1.75% |
| CCOC(=O)c1cccc(NC(=O)CCS(=O)(=O)c2ccc3c(c2)CC(=O)N3C)c1 | inactive: 10.8% |
| Cc1ccc(S(=O)(=O)C2(C(=O)Nc3ccc(Cl)c(C(F)(F)F)c3)CC2)cc1 | inactive: -16.5% |
| Cc1cccc(N2CCN(C(=O)CS(=O)(=O)c3cccc4nsnc34)CC2)c1C | inactive: 2.86% |
| Cc1ccc(Cl)cc1N1CCN(C(=O)C2CCC(CNS(=O)(=O)c3cccs3)CC2)CC1 (stereo not given) | inactive: -20.5% |
| Cc1ccc(CNc2ccc(-c3nc(-c4ccncc4)no3)cc2[N+](=O)[O-])cc1 | inactive: 12.4% |
| COc1ccc(-n2ccnc2SCC(=O)Nc2ccc3c(c2)OCO3)cc1 | inactive: 1% |
| COC(=O)CN1C(=O)C(C)(C)c2cc(S(=O)(=O)Nc3ccc(Br)cc3F)ccc21 | inactive: 4.71% |
| Cc1[nH]c2ccc(Br)cc2c1CCNC(=O)c1cc2ccccc2oc1=O | inactive: -5.39% |
| CCN(CC)c1ccc(NC(=O)CN2CCN(c3ccccc3F)CC2)cc1 | inactive: 0.0073% |
| O=S(=O)(NCCS(=O)(=O)N1CCN(c2cccc(Cl)c2)CC1)c1ccc(F)cc1 | inactive: -1.99% |
| CCOc1ccc(C2=NC(c3cccs3)=Nc3ccc(CC)cc3N2)cc1OCC | inactive: -3.18% |
| O=C(NCc1ccccc1F)c1sc2ncccc2c1-n1cccc1 | inactive: -12.3% |
| CCn1cc2nc(SCC(=O)Nc3ccc(C)cc3)n(Cc3ccc(C)cc3)c(=O)c2n1 | inactive: 3.31% |
| Cc1cccc(NC(=O)CN2C(=O)C(c3ccccc3)=NC23CCC(C)CC3)c1 (stereo not given) | inactive: -3.31% |
| CC(=O)c1cccc(-n2c(=O)c3c4c(sc3n(Cc3cccc(C)c3)c2=O)CN(C(C)=O)CC4)c1 | inactive: 0.866% |
| Cc1cc(C)n(CCc2nc3c4ccccc4nc(N4CCN(c5cccc(C)c5C)CC4)n3n2)n1 | inactive: 3.1% |
| CC(=O)N1CCCc2cc(S(=O)(=O)N3CCCC(C(=O)Nc4ccc(C)cc4C)C3)ccc21 (stereo not given) | inactive: -0.328% |

| Compound | activity change, negative = cytotoxicity |
| --- | --- |
| COc1ccc(-n2nc3cc(C)c(NC(=O)c4ccc(-c5ccc(Br)cc5)o4)cc3n2)cc1 | inactive: 5.93% |
| CSc1ncc(Cl)c(C(=O)Nc2ccc(S(=O)(=O)Nc3nccc(C)n3)cc2)n1 | inactive: -16.8% |
| CCCCN(C)CCCNC(=O)CN1N=C(c2ccc(OC)cc2)CCC1=O | inactive: -1.39% |
| CC(=O)c1ccc(NC(=O)CCc2c(C)nc3c(c2C)c(=O)n(C)c(=O)n3C)cc1 | inactive: 1.31% |
| Cc1c2cnn(CC(=O)N3CCN(c4ccccc4)CC3)c(=O)c2c(C)n1Cc1ccccc1Cl | inactive: 7.17% |
| Cc1ccc(CCNC(=O)c2ccc3[nH]c(C)c(C)c3c2)cc1 | inactive: -4.07% |
| COc1ccc(CCNC(=O)c2cc3n(n2)CCCN(Cc2ccc(C)cc2)C3=O)cc1OC | inactive: -13.6% |
| Cc1ccc(-c2onc(C)c2C)cc1S(=O)(=O)NCc1ccc(N(C)C)cc1 | inactive: -0.741% |
| CCc1ccc(NC(=O)Cn2c(=O)n(CCCCC(=O)NCc3ccccc3Cl)c(=O)c3ccccc32)cc1 | inactive: 16.8% |
| Cc1cc(C)c(S(=O)(=O)NCC(c2ccco2)N2CCOCC2)c(C)c1 (stereo not given) | inactive: 0.042% |
| CCc1nc2c(cnn2-c2ccc(C)cc2)c(=O)n1Cc1ccccc1 | inactive: 22.6% |
| CCOC(=O)N1CCc2c(sc3c2c(=O)n(Cc2ccccc2)c(=O)n3Cc2cccc(C)c2)C1 | inactive: 19.6% |
| CCn1c(=O)cc(OCC(=O)NCc2ccccc2OC)c2ccccc21 | inactive: -25% |
| COc1ccc(NC(=O)c2cc(C)nc3c2c(C)nn3-c2ccc(C)cc2)cc1OC | inactive: 2.21% |
| C=CCC(CC=C)(CNC(=O)C(=O)Nc1ccc(C)cc1)c1ccccc1 | inactive: -0.997% |
| COc1cccc(Cn2c(=O)n(-c3cccc(Cl)c3)c(=O)c3c4c(sc32)CN(C(C)=O)CC4)c1 | inactive: -22.7% |
| CCOc1cc(OCC)cc(C(=O)Nc2cccc(-c3nc4ccccc4[nH]3)c2)c1 | inactive: -15.7% |
| COc1ccccc1-c1nnc(C2CCN(C(=O)c3cccc(C)c3)CC2)o1 | inactive: 0.948% |
| O=C(CSc1cn(CC(=O)N2CCCCC2)c2ccccc12)NCc1ccccc1 | inactive: -8.4% |
| COCc1cc(C)nc2c1C(=O)NC(c1ccc(C)cc1)N2Cc1ccccc1 (stereo not given) | inactive: 6.91% |
| CCCN1C(=O)c2[nH]nc(-c3ccccc3)c2C1c1cccc(O)c1 (stereo not given) | inactive: -12% |
| CCOc1ccc(-c2nnc(SCC(=O)NCc3ccccc3Cl)o2)cc1 | inactive: 3.74% |
| CCN(CC)CCNC(=O)C(=O)NCC(c1ccc2c(c1)OCO2)N1CCOCC1 (stereo not given) | inactive: -0.494% |
| CCOc1ccc(S(=O)(=O)N2CCN(c3cccc(C(F)(F)F)c3)CC2)cc1OCC | inactive: -1.36% |

| Compound | activity change, negative = cytotoxicity |
| --- | --- |
| COc1ccccc1NC(=O)CSC1=Nc2ccccc2C2=NC(Cc3ccccc3)C(=O)N12 (stereo not given) | inactive: -5.29% |
| COc1ccc2c(c1)CCc1sc(NC(=O)c3cccc(Br)c3)nc1-2 | inactive: 3.62% |
| Cc1ccc(NC(=O)c2oc3ccccc3c2NC(=O)Cc2ccccc2)cc1 | inactive: 16.4% |
| CCCOc1cccc(C(=O)N(Cc2sccc2C)C2CCS(=O)(=O)C2)c1 (stereo not given) | inactive: -1.05% |
| COc1ccc(CNC(=O)c2cnc(N(C)C)nc2)cc1 | inactive: 2.08% |
| CC(C)OCCCNC(=O)CN1C(=O)c2cccnc2Sc2ccccc21 | inactive: 1.57% |
| Cc1cc(Cl)ccc1OCC(=O)N(Cc1sccc1C)C1CCS(=O)(=O)C1 (stereo not given) | inactive: 4.51% |
| CCC(=O)Nc1ccc2nc(SCCOc3ccc(C)cc3OC)sc2c1 | inactive: 18.1% |
| CC(=O)c1ccc(NC(=O)CSc2nc(-c3ccc(C)cc3)nc3c2c(=O)n(C)c(=O)n3C)cc1 | inactive: 0.704% |
| CCn1c(=O)cc(OCC(=O)N2CCN(c3ccc(C)cc3)C(C)C2)c2ccccc21 (stereo not given) | inactive: -3.37% |
| CCN(CC)CCNC(=O)CN1N=C(c2ccc(OC)cc2)CCC1=O | inactive: 9.76% |
| Cc1cccn2cc(-c3cccc(NC(=O)C(C)C)c3)nc12 | inactive: -6.95% |
| O=C(Cn1cc(SCc2c(F)cccc2Cl)c2ccccc21)N1CCCCC1 | inactive: -0.252% |
| Cn1c(=O)n(Cc2ccccc2)c(=O)c2c1nc1n2CCN1c1ccccc1 | inactive: 7.32% |
| COc1cccc2c(C)cc3nnc(SCC(=O)Nc4ccc(C)cc4)n3c12 | inactive: 1.52% |
| COCCNC(=O)CN1C(=O)c2cccnc2Sc2ccccc21 | inactive: 2.1% |
| O=C(Cn1ncc2c1-c1ccccc1OC2)N1CCN(c2ccccc2)CC1 | inactive: 18.3% |
| O=C(c1ccc2c(c1)OCO2)c1cn(Cc2ccc(Cl)cc2)c2ccc(F)cc2c1=O | inactive: -11.1% |
| Cc1ccc(-c2cn3cccnc3n2)cc1NC(=O)Nc1ccc(F)cc1 | inactive: 2.46% |
| CC(C)(C)OC(=O)N1CCC(c2c(C(=O)N3CCN(c4ccccn4)CC3)cnn2-c2ccc(F)cc2)CC1 | inactive: 0.114% |
| COc1ccc2c(c1)c(=O)c(S(=O)(=O)c1ccc(F)cc1)cn2Cc1ccccc1Cl | inactive: -16.2% |
| CCCCOc1ccc(C(=O)N2CCCCC2CCN2CCOCC2)cc1 (stereo not given) | inactive: 22% |
| CC1CCC(NC(=O)c2ccc(CS(=O)(=O)c3ccc(Cl)cc3)o2)CC1 (stereo not given) | inactive: -2.17% |
